We go through 4 molecules from US20230416345A1 (NAVIGO PROTEINS, published 2023).

Assay [1] concerns the target T1, porcine collagen type II (porcine).
T1 construct: Prepared in house from pig eyes; also called p Col II; porcine type II collagen
In words: ELISA (KD determination by ELISA, Example 5). Background: In an ELISA, binding on a coated surface is turned into a signal by an enzyme label.

Another assay addresses T2, human collagen type III (human, UniProt P02461 154-1221).
T2 construct: Bought; also called h Col III; type III collagen
T2 sequence (looked up): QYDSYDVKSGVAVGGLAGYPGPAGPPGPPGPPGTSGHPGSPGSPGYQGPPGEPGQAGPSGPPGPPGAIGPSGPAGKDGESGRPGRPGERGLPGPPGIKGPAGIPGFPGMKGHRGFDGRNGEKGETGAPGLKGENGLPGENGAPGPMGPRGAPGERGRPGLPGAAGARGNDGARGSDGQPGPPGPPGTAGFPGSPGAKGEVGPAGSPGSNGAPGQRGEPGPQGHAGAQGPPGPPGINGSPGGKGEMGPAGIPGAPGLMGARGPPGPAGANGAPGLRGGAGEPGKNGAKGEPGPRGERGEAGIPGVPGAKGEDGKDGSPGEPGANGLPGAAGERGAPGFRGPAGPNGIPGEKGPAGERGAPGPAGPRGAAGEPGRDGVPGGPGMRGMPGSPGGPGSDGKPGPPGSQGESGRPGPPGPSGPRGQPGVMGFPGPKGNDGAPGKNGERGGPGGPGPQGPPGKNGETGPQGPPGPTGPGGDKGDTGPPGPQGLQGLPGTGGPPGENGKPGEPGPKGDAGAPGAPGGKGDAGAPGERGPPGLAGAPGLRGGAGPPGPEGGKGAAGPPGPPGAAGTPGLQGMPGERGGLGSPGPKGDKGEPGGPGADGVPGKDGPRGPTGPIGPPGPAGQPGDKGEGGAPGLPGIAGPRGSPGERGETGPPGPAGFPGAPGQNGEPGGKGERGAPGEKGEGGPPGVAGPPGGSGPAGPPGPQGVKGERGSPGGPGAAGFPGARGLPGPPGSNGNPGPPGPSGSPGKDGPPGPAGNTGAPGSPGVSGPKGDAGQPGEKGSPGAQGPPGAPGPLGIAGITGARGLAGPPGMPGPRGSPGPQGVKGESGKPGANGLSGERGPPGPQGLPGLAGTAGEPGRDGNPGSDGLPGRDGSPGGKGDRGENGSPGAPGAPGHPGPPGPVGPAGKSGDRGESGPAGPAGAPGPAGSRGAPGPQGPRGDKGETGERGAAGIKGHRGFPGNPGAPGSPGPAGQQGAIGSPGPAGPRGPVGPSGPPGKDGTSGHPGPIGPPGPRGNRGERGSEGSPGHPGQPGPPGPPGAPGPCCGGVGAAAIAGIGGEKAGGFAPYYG
Description: ELISA, h Col III coated on the plate, A 450-600 nm. The protocol: (§1) High binding plates (Greiner, 781061) were immobilized with 2.5 μg/ml recombinant human collagen type II (h Col II, Chondrex, CHX-20051), rabbit collagen type II (rbCol II, prepared from rabbit eyes), porcine collagen type II (p Col II, prepared from porcine eyes), human collagen type I, (h Col I, Sigma, C5483-1MG), human collagen type V (h Col V, Abcam, ab7537), human collagen type III (h Col Ill, Abcam, ab7535) and 67B89 (domain of fibronectin, produced in E. coli) respectively over night at 4° C. ELISA-plates were washed 3 times with PBST (PBS+ 0.1% Tween) and blocked with 3% BSA/0.5% Tween/PBS 2 h at RT. […] Plates were washed with PBST and incubated with biotinylated anti-StrepTag-ab (Antikörper-online, ABIN1573895) with a dilution of 1:10.000 for 1 h at rt. The binding was visualized with a-rabbit-IgG-HRP (Sigma, A9169) with a dilution of 1:10.000 and as substrate TMB Plus von KEM EN TEC Diagnostic, Kat-Nr. 4395.
(§2) Results. ELISA analysis clearly confirms the specific binding to type II collagen. […] No unspecific binding to type I collagen, type III collagen, type V collagen or to a domain of fibronectin (67B89) was detected (FIG. 2).

Assay [2] addresses T1, porcine collagen type II. In words: ELISA, collagen coated on the plate, dilution series of the binder, detection via StrepTag, A 450-600 nm. The protocol: as §1, §2
For another assay, the target named is T3, rabbit collagen type II (rabbit).
T3 construct: Prepared from rabbit eyes; also called rbCol II
Described as above. Here is the method:
as §1, §2

The target of assay [3] is T4, 67B89 (domain of fibronectin) (UniProt P02751 1089-1540, limits assumed).
T4 construct: domain: EDB (67B89); Unrelated control protein; also called fibronectin domain EDB (67B89); extradomain B of fibronectin
Description: ELISA, 67B89 coated on the plate, A 450-600 nm. The protocol:
as §1, §2

T4 sequence (P02751 1089-1540 limits assumed): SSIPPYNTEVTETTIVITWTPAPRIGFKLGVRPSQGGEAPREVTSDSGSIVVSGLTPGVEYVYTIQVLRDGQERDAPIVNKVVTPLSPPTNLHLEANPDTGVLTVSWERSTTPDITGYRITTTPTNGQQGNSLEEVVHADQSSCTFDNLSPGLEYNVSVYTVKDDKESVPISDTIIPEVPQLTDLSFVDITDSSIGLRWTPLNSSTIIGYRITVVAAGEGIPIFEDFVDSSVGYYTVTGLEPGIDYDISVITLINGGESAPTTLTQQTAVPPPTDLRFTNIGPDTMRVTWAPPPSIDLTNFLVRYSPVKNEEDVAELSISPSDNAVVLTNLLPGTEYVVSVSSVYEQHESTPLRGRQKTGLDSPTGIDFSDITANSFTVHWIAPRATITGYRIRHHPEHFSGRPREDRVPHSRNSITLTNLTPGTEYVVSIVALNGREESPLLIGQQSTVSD

B1: 209130 (SEQ ID NO: 27) (designed binder)
chain: IAAKFDEAQIAAFWEIYHLPNLTEEQRTAFIWSLYDDPSVSLEVLGEAQKLNDSQAPKIAAKFDEAQQAAFYEILHLPNLTEQQRNYFIQWLRDDPSVSPTVLGTAQQLNDSQAPK
notes: also called CID 209130; not shown: C-terminal Strep-tag from the expression vector
As a reminder, the Kd is the concentration at which binding is half-saturated. B1 yielded a Kd with porcine collagen type II [1] of 110 nM.

B2: 211138 (SEQ ID NO: 34) (designed binder)
chain: IAAKFDEAQYAAFYEIWHLPNLTEEQREAFIASLADDPSVSLEVLGEAQKLNDSQAPKIAAKFDEAQQAAFYEILHLPNLTEQQRNYFIQWLRDDPSVSPTVLGTAQQLNDSQAPK
notes: also called CID 211138; not shown: C-terminal Strep-tag from the expression vector
Consider B2, for which, in the assay with porcine collagen type II [1], the equilibrium dissociation constant (Kd) turned out to be 810 nM.

B3: CID 212704 (SEQ ID NO: 42), tetramer of SEQ ID NO: 15 (designed binder)
chain: IAAKFDEAQQAADKEILHLPNLTEQQRNYFRQWLRDDPSVSPTVLGTAQQLNDSQAPKIAAKFDEAQQAADKEILHLPNLTEQQRNYFRQWLRDDPSVSPTVLGTAQQLNDSQAPKGGGSIAAKFDEAQQAADKEILHLPNLTEQQRNYFRQWLRDDPSVSPTVLGTAQQLNDSQAPKIAAKFDEAQQAADKEILHLPNLTEQQRNYFRQWLRDDPSVSPTVLGTAQQLNDSQAPKSAWSHPQFEK
notes: not shown: C-terminal Strep-tag (detected with anti-StrepTag antibody)
As for B3, the binding result (with human collagen type III; in assay [3]) was “no binding (tested: 100 nM)” throughout. In addition, the Kd was 0.17 nM with porcine collagen type II [2] and 0.3 nM with rabbit collagen type II.

B4: CID 212705 (SEQ ID NO: 40), dimer of SEQ ID NO: 15 (designed binder)
chain: IAAKFDEAQQAADKEILHLPNLTEQQRNYFRQWLRDDPSVSPTVLGTAQQLNDSQAPKIAAKFDEAQQAADKEILHLPNLTEQQRNYFRQWLRDDPSVSPTVLGTAQQLNDSQAPKSAWSHPQFEK
notes: as for B3
On to B4, for which the binding result (in the assay with human collagen type III; in assay [3]) was “no binding (tested: 10000 nM)” throughout. In addition, the Kd with porcine collagen type II [2] stood at 64.5 nM; with rabbit collagen type II, 66.7 nM.
